# Source: the supplement of paper PMC11417369
# This is one part of the list.
# System: PfHDP1 homeodomain (GST-tagged)
# Assay: gcPBM binding intensity (ln(normalized median fluorescence intensity)); higher = stronger DNA binding
# Procedure, shortened: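 An Agilent 4 × 180k array of primer-extended double-stranded 36-bp intergenic genomic probes, with negative controls, was incubated for 1 h with GST-tagged P. falciparum DNA-binding domains expressed in E. coli. Alexa488 anti-GST antibody detected bound protein, scanned at 488 nm. Binding intensity is the highest Masliner-normalised natural-log median intensity across replicate spots of either probe orientation.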
row,Sequence,gcPBM binding intensity (ln)
1,ACCAATCCAAAAGAATGTACCCATGTTTTAAAATAT [XGTACX_site2907],6.39
2,TTATTTTTTATAAAATGTACATATATTTTAAATATA [XGTACX_site4026],6.46
3,TGAAGCAAAAACAAAACACACATATAAATAAATAAA [CACACA_site3925],6.71
4,ATGTATATTTTTATGTGTACGTAATAAAACATAATA [XGTACX_site7777],6.72
5,TTATTTTTTTTTAGAGCACACATTTTTAATAAGGTA [CACACA_site2133],6.83
6,TTAATTAAATATAGGGGTACATATTATATATGTTTT [XGTACX_site3677],6.54
7,ACGAAAAGATATATATGTACATATATTAAAAAAAAA [XGTACX_site1517],6.53
8,AATATGGGCATACATGTGCACTTTTTCCCGTGGTTT,9.3
9,TTATATGCATATTTTTGTACACAACATTGTTGTATA [XGTACX_site8707],7.18
10,AAATATTTCTGCAAGGTGCACTTTATAAATCTTTGA,8.93
11,AAGAAATTTATTTATTGTACAATATATAATTTGTTT [XGTACX_site2478],6.48
12,CTGTTCAAAATATGAACACACACATATATATATATA [CACACA_site8638],9.4
13,TTAATAGTGGAAATATGTACATAATTTTGGTCTTTT [XGTACX_site1664],6.5
14,CCATATTTAATAAAATGTACTCATTCTTTTATTTTA [XGTACX_site7802],6.47
15,ACATATGGCACATATGTACACACGTATAGATAATAT [CACACA_site2024],7.07
16,CTAAAAAAATAATAAAGTACACAAACGAATATATAA [XGTACX_site668],6.89
17,TTGAAAAATCAGCACACACACAAATACATACATATT [CACACA_site7505],6.58
18,TTTTTTTTTTTTTTTGCACACTATATTTAATATAAG [CACACA_site2444],9.31
19,CTTTTTTGGTACATCACACATTTTTACATTCCCTTT [CACACA_site4957],6.79
20,TAAAAAAAAATAAAAAGTACATATATATATATATAT [XGTACX_site1155],9.38
21,AATGGAAAAATAGGCACACACACATAAATACAGATA [CACACA_site4844],6.96
22,AGTGCTACTCATGATTGAATAGAGGAAAAGGCGGTG [GTGCAC_negctrl_site49],6.21

row,Sequence,gcPBM binding intensity (ln)
1,AATATGAAACAAGACGCACACATAAATAAATAAATA [CACACA_site326],6.73
2,CACATAAAAAAATAAACACACATATGTATATAAATA [CACACA_site7483],6.63
3,CTTTAAATGATGTAAACACACACATATACATTATTA [CACACA_site9035],6.5
4,TATAAATGATTAATTTGTACATATTTTACTTAATTG [XGTACX_site5271],6.28
5,CCATTCAAATTTCGCACACACATACAAAAAAAAAAA [CACACA_site3093],7.35
6,TAAATAAATAAATATATATATATATATATATATATA [XGTACX_negctrl_site70],9.39
7,TTGATGATATCATTTTGTACTTATACGTATTTAAAA [XGTACX_site148],6.77
8,ACAAAATATTTTTCTTCACACATCCATTCAACATTT [CACACA_site5886],6.9
9,ACAAAAAAAAAAAAAATACACACACATAAAAAAAAA [TGCATGCA_negctrl_site333],6.2
10,TATATATATATATATATTAATAATTAATATAAAAGA [XGTACX_negctrl_site32],9
11,AATCAAAACATTAAAAAGAAAAAATATATATATATA [CACACA_negctrl_site366],9.03
12,CCACTATATAAAATCACACATTTATATTATACATAT [CACACA_site4570],6.55
13,ATAGATGCATATTATACACACATATGTAAATACATT [CACACA_site4691],7.34
14,ATAATAGTTAAATGTACACACTAACTACATGGAATA [CACACA_site5753],6.43
15,TTGAAGTTAATAAAAACTTTATACATGAAATTATTT [CACACA_negctrl_site684],5.89
16,AAAAAAAGAAATTAGGTGCATAGCATTAACCGATAA [GTGCAC_site9582],9.48
17,TTTATTTTAATTTATTGTACATTGTTATCAAGTGCA [XGTACX_site1110],6.47
18,TATTGGTAATGTAAATGTACATATAGATATTTACAT [XGTACX_site1922],6.19
19,GATTCCTTTAACCCTGCACACATACATACATTTATA [CACACA_site9308],8.55
20,TATATTTCTTATTACATACACACATATACATATATG [CACACA_site3202],7.01
21,TAATAATATAATAATACACACTCATTATATATATAA [CACACA_site6045],6.49
22,TATATATTTTTTTCATGTACATATAAATTAATTAAA [XGTACX_site8680],6.77
